Assay results: the supplement of paper PMC4967469

Tests used:
Test in all cases: Viability of human cancer cell lines after 72 h of drug (GDSC screen)
[1] = compound: COc1cc2c(Nc3ccc(NC(=O)c4ccccc4)cc3)ncnc2cc1OCCCN1CCOCC1 [ZM-447439]; settings: top dose inferred
Method: (§1)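 Human cancer cell lines in 384-well plates, medium with 10% serum, drug for 72 h over a 256-fold dose range (nine 2-fold or five 4-fold steps up to the top dose). Adherent lines were fixed and stained with the nucleic acid dye Syto60, suspension lines read with resazurin; signal relative to control wells, capped at 0 and 100%. One two-parameter sigmoid per drug and line, fitted in a mixed model over all curves with the slope shared within a line.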

[2] = compound: N#CC(c1ccnc(NCCc2cccnc2)n1)c1nc2ccccc2s1 [AS601245]; settings: top dose 8 µM; top dose inferred
Method: as §1

[3] = compound: NC(=O)C1CCCc2c1[nH]c1ccc(Cl)cc21 [EX-527]; settings: top dose 20 µM
Method: as §1

[4] = compound: Cn1cnc2c(F)c(Nc3ccc(Br)cc3Cl)c(C(=O)NOCCO)cc21 [AZD6244]; settings: top dose 4 µM; screen: GDSC drug entry 1498; top dose inferred
Method: as §1

[5] = compound: Nc1ccc(C(=O)Nc2cccc(-c3nc(N4CCOCC4)c4oc5ncccc5c4n3)c2)cn1 [YM201636]; settings: top dose 5.12 µM; top dose inferred
Method: as §1

Row | Cell Line | AUC [1] | IC50 [1] [µM] | AUC [2] | IC50 [2] [µM] | AUC [3] | IC50 [3] [µM] | AUC [4] | IC50 [4] [µM] | AUC [5] | IC50 [5] [µM]
1 | A172 (glioma, adherent, top dose 2 µM) | 0.82 | 1.1 | – | – | – | – | – | – | – | –
2 | D-336MG (glioma, adherent, top dose 2 µM) | 0.934 | > 2 | – | – | – | – | – | – | – | –
3 | K5 (thyroid, adherent, top dose 2 µM) | 0.978 | > 2 | – | – | – | – | – | – | – | –
4 | KYM-1 (rhabdomyosarcoma, adherent, top dose 2 µM) | 0.991 | > 2 | – | – | – | – | – | – | – | –
5 | LCLC-103H (large cell lung carcinoma, adherent, top dose 2 µM) | 0.965 | > 2 | – | – | – | – | – | – | – | –
6 | LU-65 (large cell lung carcinoma, suspension, top dose 4 µM) | 0.987 | > 4 | – | – | – | – | – | – | – | –
7 | MFE-319 (endometrium, adherent, top dose 2 µM) | 0.906 | > 2 | – | – | – | – | – | – | – | –
8 | MKN1 (stomach, adherent, top dose 2 µM) | 0.947 | > 2 | – | – | – | – | – | – | – | –
9 | MMAC-SF (melanoma, adherent, top dose 2 µM) | 0.954 | > 2 | – | – | – | – | – | – | – | –
10 | NCI-H358 (lung adenocarcinoma, adherent, top dose 2 µM) | 0.911 | > 2 | – | – | – | – | – | – | – | –
11 | NCI-H1648 (lung adenocarcinoma, adherent, top dose 2 µM) | 0.943 | > 2 | – | – | – | – | – | – | – | –
12 | NCI-H1838 (lung adenocarcinoma, adherent, top dose 2 µM) | 0.983 | > 2 | – | – | – | – | – | – | – | –
13 | NCI-H2030 (lung adenocarcinoma, adherent, top dose 2 µM) | 0.96 | > 2 | – | – | – | – | – | – | – | –
14 | RERF-GC-1B (stomach, adherent, top dose 2 µM) | 0.96 | > 2 | – | – | – | – | – | – | – | –
15 | RH-41 (rhabdomyosarcoma, adherent, top dose 2 µM) | 0.961 | > 2 | – | – | – | – | – | – | – | –
16 | SK-MEL-2 (melanoma, adherent, top dose 4 µM) | 0.936 | > 4 | – | – | – | – | – | – | – | –
17 | SK-MEL-28 (melanoma, adherent, top dose 2 µM) | 0.981 | > 2 | – | – | – | – | – | – | – | –
18 | SK-MEL-30 (melanoma, adherent, top dose 2 µM) | 0.973 | > 2 | – | – | – | – | – | – | – | –
19 | SK-UT-1 (soft tissue, adherent, top dose 2 µM) | 0.885 | 1.85 | – | – | – | – | – | – | – | –
20 | SU8686 (pancreas, adherent, top dose 2 µM) | 0.985 | > 2 | – | – | – | – | – | – | – | –
21 | SW13 (adrenal gland, adherent, top dose 2 µM) | 0.987 | > 2 | – | – | – | – | – | – | – | –

Row | Cell Line | AUC [1] | IC50 [1] [µM] | AUC [2] | IC50 [2] [µM] | AUC [3] | IC50 [3] [µM] | AUC [4] | IC50 [4] [µM] | AUC [5] | IC50 [5] [µM]
22 | SW900 (lung squamous cell carcinoma, adherent, top dose 2 µM) | 0.962 | > 2 | – | – | – | – | – | – | – | –
23 | SW1088 (glioma, adherent) | – | – | 0.863 | > 8 | 0.967 | > 20 | 0.831 | 3.65 | 0.93 | > 5.12
24 | SW1271 (small cell lung carcinoma, adherent) | – | – | 0.686 | 1.81 | 0.984 | > 20 | 0.66 | 0.75 | 0.833 | 4.02
25 | SW1417 (large intestine, adherent, top dose 4 µM) | 0.972 | > 4 | – | – | – | – | – | – | – | –
26 | SW1463 (large intestine, adherent) | – | – | 0.873 | > 8 | 0.975 | > 20 | 0.731 | 1.87 | 0.978 | > 5.12
27 | SW1573 (lung adenocarcinoma, adherent) | – | – | 0.955 | > 8 | 0.98 | > 20 | 0.874 | > 4 | 0.969 | > 5.12
28 | SW1710 (bladder, adherent) | – | – | 0.674 | 1.55 | 0.984 | > 20 | 0.793 | 1.89 | 0.782 | 2.21
29 | SW1783 (glioma, adherent) | – | – | 0.867 | 6.05 | 0.984 | > 20 | 0.974 | > 4 | 0.986 | > 5.12
30 | SW1990 (pancreas, adherent) | – | – | 0.931 | > 8 | 0.976 | > 20 | 0.826 | 3.02 | 0.985 | > 5.12
31 | Saos-2 (osteosarcoma, adherent) | – | – | 0.84 | > 8 | 0.981 | > 20 | 0.955 | > 4 | 0.981 | > 5.12
32 | SiHa (cervix, adherent) | – | – | 0.987 | > 8 | 0.984 | > 20 | 0.955 | > 4 | 0.977 | > 5.12
33 | T47D (breast, adherent) | – | – | 0.897 | > 8 | 0.978 | > 20 | 0.786 | 2.84 | 0.816 | 5.08
34 | T84 (large intestine, adherent) | – | – | 0.744 | 2.53 | 0.989 | > 20 | 0.967 | > 4 | 0.887 | > 5.12
35 | T98G (glioma, adherent) | – | – | 0.813 | 3.92 | 0.982 | > 20 | 0.96 | > 4 | 0.948 | > 5.12
36 | T-24 (bladder, adherent) | – | – | 0.942 | > 8 | 0.989 | > 20 | 0.72 | 1.02 | 0.975 | > 5.12
37 | T-T (oesophagus, adherent) | – | – | 0.762 | 2.84 | 0.986 | > 20 | 0.883 | > 4 | 0.893 | > 5.12
38 | TCCSUP (bladder, adherent) | – | – | 0.906 | > 8 | 0.985 | > 20 | 0.834 | 3.15 | 0.95 | > 5.12
39 | TE-11 (oesophagus, adherent) | – | – | 0.396 | 0.266 | 0.989 | > 20 | 0.93 | > 4 | 0.916 | > 5.12
40 | TGBC11TKB (stomach, adherent) | – | – | 0.914 | > 8 | 0.98 | > 20 | 0.926 | > 4 | 0.869 | 3.79
41 | TGBC24TKB (biliary tract, adherent) | – | – | 0.876 | 7.03 | 0.99 | > 20 | 0.855 | 2.86 | 0.897 | > 5.12

IC50 is the fitted dose that halves viability relative to control wells, and lower means more sensitive; where the fit passes the top or lowest dose, that dose stands as a limit. AUC is the area under the same curve over the 256-fold range up to the top dose, as a fraction: 1 means no effect, lower means more sensitive. For some of these results: Any top dose called inferred is not printed in the source and was worked back from the curve model. For some of these results: Drugs with an entry number were screened twice under separate entries, and the two screens often disagree.
